Measurements as given in the supplement of paper PMC5919970.
Structures can show the parent of a compound that is named as a salt. The full ranking holds about 2,000 compounds; the median of “fractional viability relative to vehicle” is about 0.92, and the lowest 2% start at about 0.11. The list shows a part of the results.

Tested on: TYKNU
Experiment: fractional viability relative to vehicle; TYKNU is a high-grade serous ovarian cancer line; higher = less growth inhibition
Conditions: 72 h, genotype: OPA1 knockout (sgOPA1 #2)
How it was run: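 TYKNU control cells or lentiCRISPRv2 knockout derivatives were plated at 500 cells per well in duplicate into drug-stamped 384-well plates holding a ~2100-compound library at 2 or 10 μM. Culture was in RPMI 1640 with 10% FBS at 37 °C in 5% CO2, with 72 h of drug treatment. Viability was measured by Cell Titer Glo luminescence, and the averaged duplicate treatment wells were normalised to duplicate control wells at the same plate position.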

| Structure (SMILES) | fractional viability (2uM) | fractional viability (10uM) |
| --- | --- | --- |
| CC(C)(CO)C(O)C(=O)NCCC(=O)O [Calcium D-Panthotenate] | 0.75 | 0.792 |
| CC[C@H](CO)Nc1nc(NCc2ccccc2)c2ncn(C(C)C)c2n1 [Roscovitine (Seliciclib,CYC202)] | 1.14 | 0.913 |
| Cc1ccc(NC(=O)c2cccc(C(C)(C)C#N)c2)cc1Nc1ccc2ncn(C)c(=O)c2c1 | 0.463 | 0.392 |
| OCCN(CCO)c1nc(N2CCCCC2)c2nc(N(CCO)CCO)nc(N3CCCCC3)c2n1 [Dipyridamole] | 1.1 | 0.942 |
| CC[C@@H](C)Nc1cc(C(=O)N[C@H]2C[C@H]3CC[C@@H](C2)N3c2ccc(C(=O)C3CC3)cn2)c(C)cc1C(N)=O | 0.549 | 0.565 |
| Cc1ccc(F)c(NC(=O)Nc2ccc(-c3cccc4[nH]nc(N)c34)cc2)c1 [Linifanib (ABT-869)] | 1.31 | 0.92 |
| C[C@]12CC[C@@H]3c4ccc(OC(=O)c5ccccc5)cc4CC[C@H]3[C@@H]1CC[C@@H]2O [Estradiol Benzoate] | 0.897 | 0.768 |
| CC(C)(C)[N+]([O-])=Cc1ccc(S(=O)(=O)O)cc1S(=O)(=O)O | 0.876 | 0.746 |
| O=C(/C=C\n1cnc(-c2cc(C(F)(F)F)cc(C(F)(F)F)c2)n1)N1CC(F)(F)C1 | 0.205 | 0.149 |
| CN1CCN(C(c2ccccc2)c2ccccc2)CC1 [Cyclizine 2HCl] | 1.01 | 0.77 |
| CC(C)OC(=O)C1=CN(C(=O)c2ccc(F)c(F)c2)CC(C)(C)c2c1[nH]c1ccccc21 | 0.841 | 0.904 |
| COc1cc2ncnc(Nc3cccc(Cl)c3)c2cc1OC [AG-1478 (Tyrphostin AG-1478)] | 1.42 | 0.294 |
| O=c1oc2cc(O)ccc2s1 [Tioxolone] | 1.01 | 0.873 |
| C[C@@H]1C[C@H]2[C@@H]3CCC4=CC(=O)C=C[C@]4(C)[C@@]3(Cl)[C@@H](O)C[C@]2(C)[C@@]1(OC(=O)c1ccco1)C(=O)CCl [Mometasone furoate] | 1.04 | 0.409 |
| CCOC(=O)[C@H](CCc1ccccc1)N[C@@H](C)C(=O)N1C(=O)N(C)C[C@H]1C(=O)O [Imidapril HCl] | 0.918 | 1.26 |
| CS(=O)(=O)c1ccc(-c2nnc(/C=C/c3nnc(-c4ccc(C#N)cc4)o3)n2-c2ccccc2Cl)nc1 | 1.11 | 1.03 |
| c1coc(CNc2ncnc3[nH]cnc23)c1 [Kinetin] | 0.862 | 0.56 |
| C[C@]12CCC3=C4CCC(=O)C=C4CC[C@H]3[C@@H]1CC[C@@]2(O)CC#N [Dienogest] | 1.11 | 0.961 |
| NC(=O)c1ccc(I)c([N+](=O)[O-])c1 [Iniparib (BSI-201)] | 1.14 | 0.945 |
| O=C(O)c1cc(/N=N/c2ccc(S(=O)(=O)Nc3ccccn3)cc2)ccc1O [Sulfasalazine] | 1.1 | 0.957 |
| C/C(=C\C(=O)OCCCCCCCCC(=O)O)C[C@@H]1OC[C@H](C[C@@H]2O[C@H]2[C@@H](C)[C@H](C)O)[C@@H](O)[C@H]1O [Mupirocin] | 1.36 | 0.971 |
| COc1ccc(C2=N[C@@H](c3ccc(Cl)cc3)[C@@H](c3ccc(Cl)cc3)N2C(=O)N2CCNC(=O)C2)c(OC(C)C)c1 [Nutlin-3a] | 0.481 | 0.367 |

| Structure (SMILES) | fractional viability (2uM) | fractional viability (10uM) |
| --- | --- | --- |
| COc1ccc(C2=N[C@@H](c3ccc(Cl)cc3)[C@@H](c3ccc(Cl)cc3)N2C(=O)N2CCNC(=O)C2)c(OC(C)C)c1 [Nutlin-3] | 0.858 | 0.623 |
| CN/C(=N\CCSCc1nc[nH]c1C)NC#N [Cimetidine] | 1.19 | 0.817 |
| C[C@@H](O[C@H]1OCCN(Cc2n[nH]c(=O)[nH]2)[C@H]1c1ccc(F)cc1)c1cc(C(F)(F)F)cc(C(F)(F)F)c1 [Aprepitant] | 1.15 | 0.832 |
| Cc1cn(-c2cc(NC(=O)c3ccc(C)c(Nc4nccc(-c5cccnc5)n4)c3)cc(C(F)(F)F)c2)cn1 [Nilotinib (AMN-107)] | 1.67 | 1.65 |
| NC(=O)c1ccc(-c2nc(-c3ccccn3)c(-c3ccc4c(c3)OCO4)[nH]2)cc1 | 1.28 | 1.44 |
| CCCNC(=O)Nc1ccc(Oc2ncnc3cc(OC)c(OC)cc23)cc1Cl | 1.27 | 1.2 |
| CC(=O)c1c(C)c2cnc(Nc3ccc(N4CCNCC4)cn3)nc2n(C2CCCC2)c1=O | 1.28 | 0.956 |
| CCN1C[C@H](C)n2c(c(O)c3c(=O)n(Cc4ccc(F)c(Cl)c4)nc(C(=O)NC)c32)C1=O | 0.944 | 1.06 |
| CC(C)(C)c1ccc(S(=O)(=O)/C=C/C#N)cc1 | 0.357 | 0.0658 |
| CNC(=O)c1cc(Oc2ccc3nc(N[C@@H]4CCCC[C@H]4O)sc3c2)ccn1 | 0.831 | 0.74 |
| Cn1cc(/C=C2\C(=O)Nc3cccnc32)c2ccccc21 | 1.21 | 1.14 |
| CNC(=O)c1ccc(Nc2ncc(C(F)(F)F)c(NCc3nccnc3N(C)S(C)(=O)=O)n2)cc1 | 0.707 | 0.591 |
| Cc1ccc(NC(=O)C2(c3ccc4c(c3)OC(F)(F)O4)CC2)nc1-c1cccc(C(=O)O)c1 [VX-809 (Lumacaftor)] | 0.996 | 1.03 |
| OCCOc1ccc(/C(=C(/CCCl)c2ccccc2)c2ccccc2)cc1 [Ospemifene] | 0.854 | 0.735 |
| CC(C)OC(=O)C(C)(C)Oc1ccc(C(=O)c2ccc(Cl)cc2)cc1 [Fenofibrate] | 1.16 | 1.14 |
| O=S(=O)(O)Oc1ccc(C(c2ccc(OS(=O)(=O)O)cc2)c2ccccn2)cc1 [Sodium Picosulfate] | 0.966 | 0.856 |
| CCn1c(-c2nonc2N)nc2c(C#CC(C)(C)O)ncc(OC[C@H]3CCCNC3)c21 | 1.01 | 0.698 |
| Cc1cc2c(s1)Nc1ccccc1N=C2N1CCN(C)CC1 [Olanzapine] | 1.07 | 0.807 |
| CN1C(=O)C(Cc2c[nH]c3ccccc23)NC1=S (stereo not drawn) [Necrostatin-1] | 0.807 | 0.811 |
| CCC[C@H](N[C@H]1CCc2cc(F)cc(F)c2C1)C(=O)Nc1cn(C(C)(C)CNCC(C)(C)C)cn1 | 0.786 | 0.87 |
| Cc1cnc(-c2ccccc2C(C)C)nc1NCc1ccc(-n2ccnn2)cc1 | 0.996 | 0.759 |
| Nc1ccc(-c2ccc3ncc4ccc(=O)n(-c5cccc(C(F)(F)F)c5)c4c3c2)cn1 [Torin 2] | 0.36 | 0.363 |
